In all, about 45,000 compounds went through this assay and about 65 (0.1%) were called active. Calls follow the shape of the dose curve; as a rule, active = well fitted activation curve with a large enough effect; inconclusive = small, poorly fitted or top-dose-only effect; inactive = no such curve, though single readings can be large or run the other way. Some of the results follow.
molecular target: Galactocerebrosidase (Homo sapiens) (UniProt P54803); test: A Novel Cell-Based Assay to Identify Small Molecules for B -Galactocerebrosidase; details: 145M-Twi-hGALC-G270D cells (Twitcher mouse brain line with human GALC G270D), HMU-beta-Gal fluorescence, 48 h; series mostly up to 57.5 µM; activation: at the top concentration; also: 0% is about no effect; nearly all actives have a fitted effect of over 65% in size
UniProt P54803, sequence (P54803 whole entry, looked up): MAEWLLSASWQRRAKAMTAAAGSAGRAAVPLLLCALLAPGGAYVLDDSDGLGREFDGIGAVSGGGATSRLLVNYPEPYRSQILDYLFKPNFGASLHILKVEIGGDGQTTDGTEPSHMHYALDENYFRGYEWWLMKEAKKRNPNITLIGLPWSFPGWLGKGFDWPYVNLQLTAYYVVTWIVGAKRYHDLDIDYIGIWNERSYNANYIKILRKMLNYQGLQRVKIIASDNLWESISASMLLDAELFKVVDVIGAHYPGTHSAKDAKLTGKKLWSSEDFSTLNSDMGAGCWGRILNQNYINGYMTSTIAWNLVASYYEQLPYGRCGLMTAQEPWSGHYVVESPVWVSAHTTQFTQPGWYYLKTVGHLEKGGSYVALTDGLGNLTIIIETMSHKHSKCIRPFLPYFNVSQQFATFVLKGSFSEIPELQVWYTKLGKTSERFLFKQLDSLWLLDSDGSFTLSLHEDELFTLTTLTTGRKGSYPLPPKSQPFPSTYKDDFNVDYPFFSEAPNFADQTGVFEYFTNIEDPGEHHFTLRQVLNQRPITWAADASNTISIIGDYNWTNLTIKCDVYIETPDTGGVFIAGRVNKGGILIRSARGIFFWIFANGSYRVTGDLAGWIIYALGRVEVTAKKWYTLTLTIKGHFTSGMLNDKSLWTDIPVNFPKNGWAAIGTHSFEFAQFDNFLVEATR
Outline: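 Fluorescence readout: HMU-β-gal cleavage by mutant GALC (0.1 mM final, citrate/phosphate pH 5.2 with 1 mg/mL taurocholate), stopped with carbonate/bicarbonate plus Triton X-100. Cells: murine Twitcher 145M-Twi expressing human G270D GALC; qHTS for activators.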

activation, inactive:
COc1ccc2cc3cc(C(=O)Nc4ccccc4C)oc3nc2c1 -11.5%
COc1cccc(C(=O)Nc2ccccc2-c2nnc(-c3ccc(C(C)(C)C)cc3)o2)c1 3.9%
O=C(c1ccccc1Cl)N1CCN(CCc2ccccn2)CC1 -1.18%
CCN1CCN(C(=O)c2ccc3c(c2)N(Cc2ccccc2F)C(=O)c2ccccc2S3(=O)=O)CC1 1.04%
Cc1ccccc1NC(=O)c1ccc(F)c(S(=O)(=O)NC2CCCC2)c1 -5.77%
Cc1ccc(NC(=O)Nc2ccc3nc(N4CCN(C)CC4)cc(C)c3c2)cc1C -1.78%
CCOc1ccc(-c2cc(CCCC(=O)NCCc3ccc(OCC)c(OCC)c3)no2)cc1 2.05%
C[C@@H](NC(=O)CN(c1ccccc1)S(=O)(=O)N(C)C)c1ccccc1 -21.8%
CCCOC(=O)c1ccc(Nc2nc3ccccc3nc2-n2nc(C)cc2C)cc1 -13%
COc1cccc(N(C)C(=S)Oc2ccc3c(c2)CCCC3)n1 -10.1%
Cc1ccc(N2CCN(C(=O)c3c(C)oc4nc(C)nc(N5CCCC5)c34)CC2)c(C)c1 -5.83%
COc1ccc(NC(=O)c2sc3nc4c(cc3c2N)CCCCCC4)cc1Cl -10.4%
CCOC(=O)c1cccc(NC(=O)N2CC(CC)Oc3ccccc32)c1 (configuration not stated) 0.641%
COc1cc(NS(=O)(=O)c2ccc(NC(=O)c3ccc(C(C)=O)cc3)cc2)nc(OC)n1 -2.06%
CCc1nn(CC(=O)NCCN(CC)CC)c(=O)c2cc3occc3n12 3.12%
O=C(CSc1ncc2c(n1)-c1ccccc1N(Cc1ccc(F)cc1)S2(=O)=O)NCc1ccccc1 1.16%
Cc1nc2cccnc2n1C1CCN(S(=O)(=O)c2ccc(C(C)C)cc2)CC1 -34.7%
CCn1c(=O)c2cc(C(=O)N(C)c3cc(Cl)c(OC)cc3OC)sc2c2ccccc21 -18.7%
Cc1cccc(CNC(=O)CCCN2C(=O)COc3ccc(C)cc32)c1 2.41%
Cc1cccc(-n2ncc(C(=O)NCc3ccco3)c2C2CCN(C(=O)OC(C)(C)C)CC2)c1 -16.4%
CC(=O)c1cccc(Nc2ncnc3c2cnn3-c2cccc(Cl)c2)c1 -5.33%
COc1cccc(NC(=O)CC2Oc3ccccc3NC2=O)c1 (configuration not stated) -9.74%
C=Cc1ccc(Cn2c(C(=O)OC)cc3sc(C)cc32)cc1 -7.18%
CC(C)OCCCNC(=O)CN1C(=O)CSc2ccc(S(=O)(=O)N3CCOCC3)cc21 -21.8%
COc1cccc(NC(=O)c2oc3ccc(S(=O)(=O)N4CCOCC4)cc3c2C)c1 -6.98%
CC1CCCCN1S(=O)(=O)c1ccc2[nH]c(=O)cc(C(=O)NCCc3ccc(Cl)cc3)c2c1 (configuration not stated) 5.14%
COC(=O)c1c(NC(=O)c2c(OC)cccc2OC)sc2c1CCCC2 -11.5%
CCc1ccc(Nc2nc3c(S(=O)(=O)c4cccc(Cl)c4)nnn3c3ccsc23)cc1 -17.5%
CC(=O)Nc1c(C(=O)Nc2ccccc2F)oc2ccccc12 2.12%
COc1ccc(-n2cc(C(=O)Nc3ccccc3C#N)c3ccccc3c2=O)cc1 -8.54%
CNc1nc(Oc2ccc(=O)[nH]n2)nc(N2CCOCC2)n1 -17.8%
Cc1ccccc1CNC(=O)Cn1cc2c(n1)-c1c(oc(C(=O)N3CCCC3)c1C)CC2 5.47%
COc1ccccc1NC(=O)C1=C(C)Nc2ncnn2C1c1sccc1C (configuration not stated) -24.5%
COc1ccc(N2CC(NC(=O)C3CCCC3)CC2=O)cc1 (configuration not stated) -9.08%
COc1ccc2nc(NC(=O)c3nc(SCc4cccc(C)c4)ncc3Cl)sc2c1 -5.82%
COc1ccc(OC)c(CNC(=O)CCC(=O)N2Cc3ccccc3Oc3ncccc32)c1 -5.8%
CCOc1ccccc1NC(=O)c1nn(-c2ccc(OC)cc2)c(=O)c2c1c1ccccc1n2C -6.35%
O=C(c1cccc([N+](=O)[O-])c1)N1CCN(CCc2ccncc2)CC1 5.24%
Cc1ccc(NC(=O)CN2C(=O)COc3ccc(S(=O)(=O)N4CCOCC4)cc32)c(Cl)c1 -7.11%
CCOc1ccc(NC(=O)Cn2c(=O)n(Cc3ccccc3)c(=O)c3c4c(sc32)CN(C(C)=O)CC4)cc1 -16.6%
CC(C)(C)c1ccc(S(=O)(=O)N2CCC(c3ccncc3)CC2)cc1 -4.25%
Cc1nc(SCCOc2ccc(Cl)cc2)[nH]c(=O)c1Cc1ccccc1 3.39%
COc1cccc(-n2cc(C(=O)Nc3ccccc3C(N)=O)c3ccccc3c2=O)c1 -14.1%
CC(=O)c1c(C)oc2ccc(N(C(=O)c3ccncc3)S(=O)(=O)c3ccc(F)cc3C)cc12 -22.1%
COc1ccc(N(CC(=O)N2CCN(c3ccc(F)cc3)CC2)S(=O)(=O)c2c(C)nn(C)c2C)cc1 -12.5%
Cc1cc(C)cc(NC(=O)CN(C)S(=O)(=O)c2ccc3c(c2)CCC(=O)N3)c1 -23%
Cc1cccc(C(=O)Nc2sc3c(c2C(=O)O)CCCC3)c1 -6.75%
CCCOc1ccc(C2C(=O)N(C3CCCCC3)CC(=O)N2CCC2=CCCCC2)cc1OC (configuration not stated) -11.9%
Cc1ccc(CNC(=O)c2cnn(-c3ccc(F)cc3F)c2C2CCN(C(=O)OC(C)(C)C)CC2)cc1 -8.71%
CCOC(=O)C(CC)Sc1nnc2[nH]c(=O)cc(C)n12 (configuration not stated) -27.5%
COc1cccc(CNC(=O)CC(c2ccc(C)cc2)N2Cc3ccccc3C2=O)c1 (configuration not stated) -1.49%
COc1ccc(NS(=O)(=O)c2ccc3c(c2)n(C)c(=O)c(=O)n3C)cc1Cl -21.1%
COc1cccc(CNC(=O)c2cccc(NC(=O)c3nsc4ccccc34)c2)c1 -9.49%
COc1cc(Cl)c(NC(=O)CN(C)S(=O)(=O)c2ccc3[nH]c4c(c3c2)CCCC4)c(OC)c1 -16.3%
Cc1ccccc1NC(=O)CSc1nnc(-c2cccc(Cl)c2)o1 -3.53%
CCOC(=O)c1cc2c(=O)n3ccccc3nc2n(CC2CCCO2)c1=NC(=O)c1ccccc1F (configuration not stated) -7.91%
COc1ccc(CNC(=O)C(C)n2nc(C)c3sc4ccccc4c3c2=O)cc1OC (configuration not stated) -7.63%
CCc1ccc(Cn2c(CNS(=O)(=O)c3ccc(Cl)s3)nc3cccnc32)cc1 0.542%
COc1ccccc1-c1ccnc2c(-c3ccc(Br)cc3)c(C)nn12 -8.39%
COc1cc(-c2nc3cnccn3c2Nc2ccc(C(C)C)cc2)ccc1O -25.1%
O=C(CSc1n[nH]c(-c2ccccc2)n1)NCCc1ccccc1 -3.96%
COc1cccc(CNC(=O)CCS(=O)(=O)c2cc3c4c(c2)CCN4C(=O)CC3)c1 -14.2%
Cc1csc2nc(-c3cccc(NC(=O)c4ccccc4F)c3)cn12 -0.299%
Cc1nn2c(=O)cc(COC(=O)c3ccc(NC(=O)c4ccc(C(C)(C)C)cc4)cc3)nc2s1 -1.36%
Cc1noc2ncnc(N3CCCC(C(=O)NCCC(C)C)C3)c12 (configuration not stated) -9.85%
COc1ccc(S(=O)(=O)N2CCC(c3nnc(-c4ccccc4C)o3)CC2)c(OC)c1 -18.4%
Cc1nn2c(=O)cc(COC(=O)c3ccccc3NC(=O)C(C)C)nc2s1 -7.48%
COc1cccc(-n2cc(C(=O)Oc3ccc(F)cc3)c3ccccc3c2=O)c1 -10.4%
COc1cc(C(=O)Nc2cccc(OCc3cc(=O)n4c(C)csc4n3)c2)cc(OC)c1OC -4.94%
Cc1ccc(S(=O)(=O)c2c(Nc3ccccc3)sc(C(=O)c3ccc4c(c3)OCO4)c2N)cc1 -12.8%
O=C(NCc1ccc2c(c1)CCN2C(=O)c1ccncc1)c1ccccc1Br -23.5%
CCCNC(=O)CCn1nc(-c2ccc(C)cc2)c2ccccc2c1=O -1.4%
Nc1nc(N)c(-c2ccccc2)s1 -14.1%
COc1ccc(-c2nc(SCC(=O)NCC3CCCO3)c(-c3ccc(Cl)cc3)[nH]2)cc1 (configuration not stated) -12.8%
Cc1c(Cl)ccc2sc(NC(=O)c3ccc(S(=O)(=O)N4CCCC4)cc3)nc12 -5.84%
COc1ccc(OC)c(NC(=O)Cn2ccn(-c3ccc(F)cc3)c(=O)c2=O)c1 -10.3%
Cc1ccc2ncc(C(=O)Nc3cccc(C(F)(F)F)c3)c(=O)n2c1 -24.7%
CCCC12CN3CC(C)(CN(C1)C3c1ccc(CC)cc1)C2=O (configuration not stated) -25.4%
CCOC(=O)c1ccc2ncc(C(=O)OCC)c(NCCc3ccc(OC)c(OC)c3)c2c1 3.52%
CCc1ccc(OCC(=O)NCC(c2ccc(Cl)cc2)N2CCOCC2)cc1 (configuration not stated) -13.5%
COc1ccccc1NC(=O)c1sc2cccc(Cl)c2c1Cl -9.17%
CCOc1ccc(CCNC(=O)c2cc3c(=O)n(C)c4ccccc4c3s2)cc1OCC -3.95%
CC(C)c1ccc(NC(=O)c2cc3c(=O)oc4ccccc4c3s2)cc1 -3.59%
CC(C)Oc1ccc(CNC(=O)C2CCN(C(=O)N3CCOc4ccc(Cl)cc43)CC2)cc1 -14.8%
Cc1ccccc1-c1nc(NC(=O)CSc2ncnc3sc4c(c23)CCCC4)ns1 -8.33%
COc1ccc(N2CCN(C(CNC(=O)C(=O)NCc3ccc(C)cc3)c3cccnc3)CC2)cc1 (configuration not stated) -7.71%
Cc1cccc(NC(=O)CSc2nc3ccccc3c3nc(CCn4cncc4C)nn23)c1 -19.4%
O=c1cc2nc(-c3ccccc3)nc(SCc3cccc(Br)c3)n2[nH]1 -11.9%
CCN1CCN(C(=O)Cn2ncc3c4ccccc4n(Cc4ccccc4F)c3c2=O)CC1 -11.5%
O=C(CC(c1cccs1)N1Cc2ccccc2C1=O)Nc1ccccc1 (configuration not stated) -2.38%
COc1cccc(N2CCN(C(=O)c3cnc4c(C)cccn4c3=O)CC2)c1 22.7%
Cc1cccc(N2CCN(C(c3ccc(F)cc3)c3nnc(-c4ccccc4)o3)CC2)c1C (configuration not stated) -17.7%
CCCCN(CCCC)C(=O)c1cc2c(=O)n3ccccc3nc2s1 -25.8%
Cc1ccc(Cl)cc1N1CCN(C(=O)C(C)n2ncn3cccc3c2=O)CC1 (configuration not stated) 8.6%
Cc1cccc(N2CCN(S(=O)(=O)c3ccc(F)c(C(=O)Nc4cccc(Cl)c4C)c3)CC2C)c1 (configuration not stated) -15.1%
CCNC(=O)c1c(NC(=O)c2cc(=O)c3ccc(C)c(C)c3o2)sc2c1CCCC2 -9.32%
Cc1ccc(-n2nc3c(=O)n(CCCC(=O)NCc4ccc(F)cc4)nc(C)c3c2C)cc1 -17.2%

From PubChem BioAssay AID1159614 (National Center for Advancing Translational Sciences (NCATS), 2016)
